{"source": "PubChem BioAssay AID504332", "about": "(National Center for Advancing Translational Sciences (NCATS), 2011)", "note": "Screen size: about 350,000 compounds; about 31,000 (8.9%) were called active. Inconclusive results, whose numbers are uncertain, are shown with a selection of clear calls. Calls follow the shape of the dose curve; as a rule, active = well fitted inhibition curve with a large enough effect; inconclusive = small, poorly fitted or top-dose-only effect; inactive = no such curve, though single readings can be large or run the other way. Where the call is inconclusive, the potency comes from a doubtful curve fit."}
{"target": "Histone-lysine N-methyltransferase EHMT2 (Homo sapiens) (UniProt Q96KQ7)", "sequence (Q96KQ7 whole entry, looked up)": "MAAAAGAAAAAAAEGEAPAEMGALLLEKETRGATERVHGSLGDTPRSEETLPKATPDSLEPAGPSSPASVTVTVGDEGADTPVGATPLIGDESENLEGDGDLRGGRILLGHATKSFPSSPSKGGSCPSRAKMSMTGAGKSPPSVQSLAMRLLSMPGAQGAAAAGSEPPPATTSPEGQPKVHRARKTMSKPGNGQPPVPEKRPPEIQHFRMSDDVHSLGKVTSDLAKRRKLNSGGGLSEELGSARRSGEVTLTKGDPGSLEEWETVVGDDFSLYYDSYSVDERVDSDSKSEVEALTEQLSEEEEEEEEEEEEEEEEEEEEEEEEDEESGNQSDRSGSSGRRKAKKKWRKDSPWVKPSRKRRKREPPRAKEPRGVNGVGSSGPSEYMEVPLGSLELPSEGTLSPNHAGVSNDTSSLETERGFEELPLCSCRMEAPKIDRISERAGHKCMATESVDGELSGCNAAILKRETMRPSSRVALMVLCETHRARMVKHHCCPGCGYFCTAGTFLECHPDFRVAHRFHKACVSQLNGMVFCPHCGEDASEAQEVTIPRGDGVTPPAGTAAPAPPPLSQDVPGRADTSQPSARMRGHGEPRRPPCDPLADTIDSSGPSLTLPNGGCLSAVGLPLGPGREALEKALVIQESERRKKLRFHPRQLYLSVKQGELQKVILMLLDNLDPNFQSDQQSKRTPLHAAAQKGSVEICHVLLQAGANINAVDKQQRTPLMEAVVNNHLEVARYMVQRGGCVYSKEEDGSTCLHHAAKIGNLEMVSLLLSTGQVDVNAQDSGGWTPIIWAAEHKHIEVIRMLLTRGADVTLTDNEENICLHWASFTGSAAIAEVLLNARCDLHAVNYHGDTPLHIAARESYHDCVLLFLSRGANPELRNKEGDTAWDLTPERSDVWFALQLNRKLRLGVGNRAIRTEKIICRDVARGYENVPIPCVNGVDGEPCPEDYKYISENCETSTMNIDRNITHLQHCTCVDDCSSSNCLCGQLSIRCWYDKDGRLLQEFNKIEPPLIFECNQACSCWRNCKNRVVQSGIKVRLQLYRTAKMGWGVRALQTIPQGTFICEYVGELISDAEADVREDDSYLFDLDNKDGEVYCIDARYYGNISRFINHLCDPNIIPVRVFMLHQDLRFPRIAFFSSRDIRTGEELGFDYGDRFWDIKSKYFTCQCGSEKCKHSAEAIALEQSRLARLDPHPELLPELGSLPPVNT", "assay": "qHTS Assay for Inhibitors of Histone Lysine Methyltransferase G9a; also: nearly all actives have a fitted effect of over 75% in size; also: potency is read from the fitted curve at half-maximal effect; tags tell the direction and shape of the fitted curve; as to activity, negative = inhibition: % is scaled to controls: 0 for no effect and ±100 for the full control effect", "conditions": "G9a H3K9 monomethylation, AlphaScreen, 2 h; activity, negative = inhibition: at 59 µM (top of the series) unless noted", "outline": "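Methyltransferase reactions run at room temperature for 2 h (20 nM enzyme, 500 nM biotin-H3K9 peptide, 20 uM SAM) after a 15 min compound preincubation; product detected by AlphaScreen beads and anti-H3K9me1 antibody.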"}
{"compound": "Cc1cc(OCC(=O)NCC(c2ccc(F)cc2)N2CCOCC2)ccc1Cl", "note": "(stereo unspecified)", "Potency": "inconclusive: 3.16 µM [inhibitor, single point]"}
{"compound": "COc1ccc(-n2c(C)cc(C(=O)CN3C(=O)NC4(CCCc5sccc54)C3=O)c2C)cc1", "note": "(stereo unspecified)", "Potency": "inconclusive: 39.8 µM [inhibitor, single point]"}
{"compound": "Cc1nn(C)cc1CNC(=O)c1ccc(Br)o1", "Potency": "inconclusive: 89.1 µM [inhibitor, single point]"}
{"compound": "Nc1nc(C(=O)N2CCOCC2)nn1S(=O)(=O)c1ccc(Cl)cc1", "activity, negative = inhibition": "inconclusive: -88.9% [inhibitor]"}
{"compound": "COC(=O)Cc1c(C)nc2nc(-c3ccccc3)[nH]n2c1=O", "Potency": "inconclusive: 1.41 µM [inhibitor, partial curve, poor fit]"}
{"compound": "Nc1ccc([N+](=O)[O-])cc1C(=O)NNC(=O)c1ccco1", "Potency": "inactive"}
{"compound": "Cn1cccc1C(=O)N1CCC[C@@]2(CCN(C(=O)Nc3cccc(C#N)c3)C2)C1", "activity, negative = inhibition": "inactive: 9.54% [at 12.7 µM]"}
{"compound": "Cc1cc2nc(-c3cccc(NC(=O)C(C)C)c3C)oc2cc1C", "Potency": "inconclusive: 31.6 µM [inhibitor, single point]"}
{"compound": "COc1ccc(C2C(C#N)=C(/N=C/N3CCN(C)CC3)OC3=C2C(=O)CC(C)(C)C3)cc1", "note": "(stereo unspecified)", "Potency": "inconclusive: 56.2 µM [inhibitor, partial curve]"}
{"compound": "Cc1ccccc1-n1nc(C)c2c(C(=O)NN)cc(-c3ccncc3)nc21", "Potency": "inactive"}
{"compound": "Cc1ccc(NC(=O)CCNC(=O)c2ccc([N+](=O)[O-])cc2)cc1C", "Potency": "inconclusive: 7.08 µM [inhibitor, partial curve, poor fit]"}
{"compound": "Cc1ccc2c(c1)c(/C=C/c1cc[n+](C)cc1)c(C)n2C", "Potency": "active: 44.7 µM"}
{"compound": "NS(=O)(=O)c1ccc(NC(=S)NNC(=O)c2ccc(Br)o2)cc1", "Potency": "active: 8.91 µM"}
{"compound": "CCC(CC)c1nnc(NC(=O)CSCC(=O)Nc2cc(C)on2)s1", "Potency": "inconclusive: 50.1 µM [inhibitor, partial curve]"}
{"compound": "CS(=O)(=O)N(CC(=O)Nc1ccccc1C(=O)N1CCCC1)c1cccc([N+](=O)[O-])c1", "Potency": "inconclusive: 70.8 µM [inhibitor, single point]"}
{"compound": "CCOC(=O)c1[nH]c2ccc(OC)cc2c1NC(=S)N1CCN(c2ccccn2)CC1", "Potency": "inconclusive: 89.1 µM [inhibitor, single point]"}
{"compound": "C=CCn1c(SCC(=O)c2ccc(CNC(C)=O)o2)nc2ccccc2c1=O", "Potency": "inconclusive: 31.6 µM [inhibitor, single point]"}
{"compound": "O=S(=O)(NC1c2cccc3cccc(c23)C1Sc1ncccn1)c1ccc(Cl)cc1", "note": "(stereo unspecified)", "Potency": "inconclusive: 1.41 µM [inhibitor, partial curve, poor fit]"}
{"compound": "O=C(Nc1ccc(S(=O)(=O)Nc2cnc3ccccc3n2)cc1)c1ccc(Br)o1", "Potency": "active: 44.7 µM"}
{"compound": "O=C(/C=C/c1ccco1)NC(=S)Nc1cccc([N+](=O)[O-])c1", "Potency": "inactive"}
{"compound": "CC(=O)Nc1ccc(S(=O)(=O)NCCSCc2c(Cl)cccc2Cl)cc1", "Potency": "inactive"}
{"compound": "CN(C)C(CNc1nnnn1-c1ccccc1)c1ccco1", "note": "(stereo unspecified)", "Potency": "inconclusive: 25.1 µM [inhibitor, partial curve, poor fit]"}
{"compound": "O=C(NCSc1ccnc(SCNC(=O)c2ccc(F)cc2)n1)c1ccc(F)cc1", "Potency": "active: 2.82 µM"}
{"compound": "COc1ccc2cc(-c3nc(Cl)c4c5c(sc4n3)CC(C)CC5)c(=O)oc2c1", "note": "(stereo unspecified)", "Potency": "inactive"}
{"compound": "CC(CCc1ccco1)NC(=O)Cn1ncc2c1-c1ccccc1OC2", "note": "(stereo unspecified)", "Potency": "inconclusive: 20 µM [inhibitor, single point]"}
{"compound": "Fc1ccc(NCc2nnc(SCc3nnc(-c4ccccc4)o3)n2Cc2ccccc2)cc1", "Potency": "inconclusive: 0.316 µM [inhibitor, full curve]"}
{"compound": "CC(C)(C)c1ccc(COn2c(=O)c(-c3ccco3)[n+]([O-])c3ccccc32)cc1", "Potency": "inconclusive: 10 µM [inhibitor, partial curve, poor fit]"}
{"compound": "Cc1cc(C)n2nc(SCC3COc4ccccc4O3)nc2n1", "note": "(stereo unspecified)", "Potency": "inconclusive: 25.1 µM [inhibitor, partial curve, poor fit]"}
{"compound": "Oc1ccc(/C=N/N2CCCCC2)cc1O", "activity, negative = inhibition": "inactive: -9.9% [at 2.33 µM]"}
{"compound": "O=C(O)C1Cc2ccccc2CN1C(=O)COc1ccc(Cl)cc1Cl", "note": "(stereo unspecified)", "Potency": "active: 25.1 µM"}
{"compound": "COc1ccc(-c2cc(C(F)(F)F)n3ncc(C(=O)NCc4ccco4)c3n2)cc1", "Potency": "inactive"}
{"compound": "O=C(c1ccccc1)c1ccc2nc(-c3ccco3)c(-c3ccco3)nc2c1", "Potency": "active: 3.16 µM"}
{"compound": "CC(=O)Nc1nc(=S)n(-c2ccccc2)[nH]1", "Potency": "active: 3.98 µM"}
{"compound": "O=C(Cn1ncc(Cl)c(Cl)c1=O)Nc1ccc2c(c1)OCO2", "Potency": "inconclusive: 7.94 µM [inhibitor, partial curve, poor fit]"}
{"compound": "Oc1c(C(c2cccs2)N2CCC3(CC2)OCCO3)sc2ncnn12", "note": "(stereo unspecified)", "Potency": "inconclusive: 100 µM [inhibitor, single point]"}
{"compound": "CC1(OC(=O)C2CCCC2)C(=O)C=C2C=C(c3ccsc3)N(c3ccccc3)C=C2C1=O", "note": "(stereo unspecified)", "activity, negative = inhibition": "inactive: 14.9% [at 12.7 µM]"}
{"compound": "CC(=O)N(C)c1ccc(N=NC2C(=O)N(C(N)=S)N=C2C)cc1", "note": "(stereo unspecified)", "Potency": "inconclusive: 39.8 µM [inhibitor, single point]"}
{"compound": "Cc1nn(Cc2c(F)c(F)c(F)c(F)c2F)c(C)c1NC(=O)c1ccc(COc2ccc(Cl)cc2Cl)o1", "Potency": "inconclusive: 89.1 µM [inhibitor, single point]"}
{"compound": "CC(=O)ON1C(C)(C)Cc2noc(N)c2C1(C)C", "Potency": "inactive"}
{"compound": "CN(CC(=O)Nc1ccccc1C(F)(F)F)Cc1c(O)ccc2ccccc12", "Potency": "active: 7.94 µM"}
{"compound": "CCN(C(=O)COC(=O)CNS(=O)(=O)c1ccc2ccccc2c1)C1CCCCC1", "Potency": "inconclusive: 11.2 µM [inhibitor, partial curve]"}
{"compound": "CCOC(=O)Cc1csc(NC(=O)c2sc3nc4c(C)cc(C)cc4cc3c2N)n1", "Potency": "inconclusive: 1.26 µM [inhibitor, full curve, poor fit]"}
{"compound": "CCCC(=O)Nc1ccc(NC(=O)c2ccccn2)cn1", "Potency": "inconclusive: 44.7 µM [inhibitor, partial curve, poor fit]"}
{"compound": "CC(=O)c1cccc(N=c2scc(-c3ccc(S(=O)(=O)N4CCOCC4)cc3)n2CCO)c1", "Potency": "active: 44.7 µM"}
{"compound": "CN(CC(=O)Nc1cccc(F)c1)C(=O)c1cc(-c2cccs2)nn1-c1ccccc1", "Potency": "active: 50.1 µM"}
{"compound": "Cc1ccc2nc(N=C(N)N)nc(C)c2c1", "Potency": "inconclusive: 39.8 µM [inhibitor, single point]"}
{"compound": "Cn1c(SCc2ccccc2Cl)nc(=O)c2c1NC(=O)CC2c1cc(F)ccc1F", "note": "(stereo unspecified)", "Potency": "inactive"}
{"compound": "CCOc1ccc(NC(=O)Nc2c[nH]c(=O)[nH]c2=O)cc1", "Potency": "inactive"}
{"compound": "O=C(CSc1nc2ccccc2s1)NC1CCCC1", "Potency": "active: 22.4 µM"}
{"compound": "COCCn1c(-c2ccco2)nc2nc3ccccc3nc21", "activity, negative = inhibition": "inconclusive: -66.5% [inhibitor]"}
{"compound": "Cc1ccc(S(=O)(=O)N(C)c2c(C)ccc(S(=O)(=O)NC(C)(C)C)c2C)cc1", "activity, negative = inhibition": "inconclusive: -61.7% [inhibitor] [at 0.501 µM]"}
{"compound": "Cc1ccc(NC(=O)CSc2nccc(=O)[nH]2)c(S(=O)(=O)N2CCOCC2)c1", "Potency": "inconclusive: 89.1 µM [inhibitor, single point]"}
{"compound": "CCC(C)(C)n1nnnc1C(c1cc(OC)ccc1OC)N1CCN(Cc2ccccc2)CC1", "note": "(stereo unspecified)", "Potency": "inconclusive: 39.8 µM [inhibitor, partial curve, poor fit]"}
{"compound": "Cc1c(NC(=S)Nc2ccccc2C(F)(F)F)cccc1[N+](=O)[O-]", "Potency": "inconclusive: 70.8 µM [inhibitor, single point]"}
{"compound": "COc1cccc(C2=N/C(=C\\N(C)C)C(=O)O2)c1", "Potency": "inactive"}
{"compound": "Cn1cnnc1SCC(=O)Nc1sc2c(c1C(N)=O)CCC2", "Potency": "inconclusive: 22.4 µM [inhibitor, single point]"}
{"compound": "CCOc1ccccc1CNC(=O)c1ccc2c(c1)nc1n2CCC(C)C1", "note": "(stereo unspecified)", "Potency": "inactive"}
{"compound": "CC(C)(O)CCCC(C)(O)c1ccc(C(=O)O)cc1O", "note": "(stereo unspecified)", "activity, negative = inhibition": "inconclusive: -73.7% [inhibitor]"}
{"compound": "Cc1ccc(NC(=S)NCC2CCN(C(C)c3ccccc3)C2)cc1C", "note": "(stereo unspecified)", "Potency": "inconclusive: 50.1 µM [inhibitor, partial curve]"}
{"compound": "Cc1n[nH]c(=O)nc1NCc1ccco1", "activity, negative = inhibition": "inactive: -31.5% [at 12.7 µM]"}
{"compound": "CCOC(=O)c1ccccc1NC(=O)Cn1c(=O)n(-c2ccc(CC)cc2)c(=O)c2c(C)c(C(=O)N(C)C)sc21", "Potency": "inactive"}
{"compound": "COc1ccc(NC(=O)NNC(=O)C(O)(c2ccccc2)c2ccccc2)cc1", "Potency": "inactive"}
{"compound": "CC1CCCC(C)N1CCCNC(=O)c1cc2c(=O)n(C)c3ccccc3c2n1C", "note": "(stereo unspecified)", "Potency": "inconclusive: 79.4 µM [inhibitor, single point]"}
{"compound": "CC(=O)NS(=O)(=O)c1ccc(NC(=O)c2ccc3c(c2)OCO3)cc1", "Potency": "inactive"}
{"compound": "Cc1noc(C)c1S(=O)(=O)N(CC(=O)N1CCc2ccccc21)c1ccc(C(C)C)cc1", "Potency": "inconclusive: 39.8 µM [inhibitor, single point]"}
{"compound": "CC1(C)CC(=O)C(CS(=O)(=O)c2ccccc2)=C(Cl)C1", "Potency": "inconclusive: 79.4 µM [inhibitor, single point]"}
{"compound": "Nc1ncc(S(=O)(=O)Nc2ccc(OC(F)(F)F)cc2)cn1", "Potency": "inactive"}
{"compound": "Cc1nc(-c2ccc([N+](=O)[O-])cc2)sc1C(=O)O", "Potency": "inconclusive: 89.1 µM [inhibitor, partial curve, poor fit]"}
{"compound": "COc1ccc(C2C(C(C)=O)=C(O)C(=O)N2CCN(C)C)cc1OC", "note": "(stereo unspecified)", "Potency": "active: 50.1 µM"}
{"compound": "COc1ccccc1N1CCN(Cc2ccc(O)c3ncccc23)CC1", "activity, negative = inhibition": "inconclusive: -74.9% [inhibitor]"}
{"compound": "O=C(Oc1ccccc1)N1CCC2(CC1)CN(c1ccncc1)C2", "activity, negative = inhibition": "inactive: 36.4% [at 12.7 µM]"}
